From PubChem BioAssay AID1240 (Sanford-Burnham Center for Chemical Genomics, 2008)
About 800 (1.6%) of roughly 50,000 compounds showed an effect of 50% or more. Some of the results follow.

The compounds below were run against Bcl-2-like protein 10 (Homo sapiens) (UniProt Q9HD36) (assay: Phenotype converters, Bcl-B/TR3 peptide binding displacement, primary biochemical FP (AID 1240;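 note: 0% = Bcl-B with tracer peptide and DMSO and 100% = tracer peptide lacking Bcl-B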)). Conditions: GST-Bcl-B / FITC-TR3 peptide fluorescence polarization; stronger effect = higher value; compound at 3.75 mg/L.
Chain of UniProt Q9HD36 (Q9HD36 whole entry, looked up): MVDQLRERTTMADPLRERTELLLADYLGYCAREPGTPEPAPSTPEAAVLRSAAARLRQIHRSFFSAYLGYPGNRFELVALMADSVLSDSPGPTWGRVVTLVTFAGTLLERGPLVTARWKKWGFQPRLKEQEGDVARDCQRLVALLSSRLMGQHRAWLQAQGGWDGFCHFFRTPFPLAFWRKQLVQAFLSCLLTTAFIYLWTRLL

SMILES	displacement [%]
O=C(COc1cccc2ccccc12)NCc1ccncc1	-3.1
CCOC(=O)C1=C(O)/C(=C/c2cccc(O)c2)SC1=Nc1ccc([N+](=O)[O-])cc1	-1.1
O=C(O)CCCC(=O)NCCC(c1ccccc1)c1ccccc1	4.4
Cc1cccc(N2C(=O)/C(=C/c3cccc(O)c3)SC2=S)c1	7.5
COC(=O)C1=C(C)N(CC(C)C)C(=O)/C1=C\c1cccc([N+](=O)[O-])c1	9.6
O=C1/C(=C/c2ccc3c(c2)OCO3)SC(=S)N1Cc1ccco1	94.5
Cc1cc(NC(=O)c2ccc(-c3cccc([N+](=O)[O-])c3)o2)ccc1NC(=O)c1ccco1	-0.3
Cc1oc2ccc(OCc3ccccc3F)cc2c1C(=O)O	12.9
COc1ccc(/C=C2\SC(N3CCCC3)=NC2=O)cc1OC	5.8
CC(C)c1ccc(/C=C(\NC(=O)c2ccccc2)C(=O)NCCN2CCOCC2)cc1	10.3
CCC1=NN2C(=N)/C(=C/c3ccc4c(c3)OCO4)C(=O)N=C2S1	3
CCOc1cccc(/C=C2/C(=O)NN(c3cc(Cl)cc(Cl)c3)C2=O)c1O	13.5
COc1cc(/C=C2\SC(=S)N(c3cccc(C(=O)O)c3)C2=O)ccc1O	-67.8
CCOC(=O)c1c(NC(=O)C2CC3CCC2C3)sc2c1CCC(C)C2 (centres undefined)	2
Cc1nc(-c2ccccc2)nc2[nH]ccc(=O)c12	11.9
CC1=C(C(=O)OC(C)C)C(c2cccc(I)c2)C2=C(CCCC2=O)N1 (centres undefined)	4.2
C/C(=N\Nc1cc(-c2ccccc2)nc(C)n1)c1cccc(N)c1	-9
COc1cccc(NC(=O)c2ccc(C(=O)Nc3cccc(OC)c3)nc2)c1	5.8
COc1c(Cl)cc(C(=O)Nc2cccc(S(N)(=O)=O)c2)cc1Cl	-2.2
CCOC(=O)c1c(C)[nH]c(C=C2C(=O)CC(C)(C)CC2=O)c1O	17.3
O=C(CC1S/C(=N\N=C\c2cccc(O)c2)NC1=O)Nc1ccccc1C(F)(F)F (centres undefined)	10.1
Cc1cccc(OCCn2c(C)nc3ccccc32)c1	-12.2

SMILES	displacement [%]
CCOc1cc(C=C2C(=O)NC(=O)NC2=O)ccc1OCc1ccc(Cl)cc1	9.6
CCCCOc1ccc(NC(=O)c2cccc(C(F)(F)F)c2)cc1	-7.6
Fc1ccc(NC(=S)Nc2ccc(I)cc2)cc1	-10.1
CCOC(=O)c1ccccc1NC(=O)CN(c1ccccc1CC)S(C)(=O)=O	-7.4
CC1CC(N(C(=O)c2cccs2)c2ccccc2)c2ccccc2N1 (centres undefined)	18.1
N/C(=N\c1nc(C(F)(F)F)cc(=O)[nH]1)Nc1ccc(Oc2ccccc2)cc1	6.9
CN1C(=O)/C(=C/c2cc([N+](=O)[O-])ccc2O)SC1=S	-14.4
Cc1ccc(C(=O)Nc2ccccn2)cc1	4.6
Cc1cc(C)nc(SCC(=O)N2c3ccccc3CCc3ccccc32)n1	0.8
COc1ccccc1NC(=O)c1ccc2c3c(cccc13)CC2	-2.4
CCOC(=O)C1CCN(C(=S)NC23CC4CC(CC(C4)C2)C3)CC1	-1.9
Cc1ccc2cccc(SCC(=O)N3CCOCC3)c2n1	-4.9
O=C(NCc1ccco1)c1ccc(Br)cc1	11.1
Cc1ccccc1OCC(=O)NC1C2CC3CC(C2)CC1C3 (centres undefined)	-9.2
O=[N+]([O-])c1cccc(S(=O)(=O)Nc2cccc(I)c2)c1	2.5
CCCCC(=O)N1c2ccccc2C(N(C(=O)Cc2ccc(F)cc2)c2ccccc2)CC1C (centres undefined)	-7.2
Cc1ccc(N2C(=O)NC(=O)/C(=C\c3ccc(-c4ccc([N+](=O)[O-])cc4Cl)o3)C2=O)cc1	87.2
CCn1c(=O)c(C(=O)Nc2ccccc2Br)c(O)c2ccccc21	8.3
O=C(CCC1CCCC1)N1CCN(S(=O)(=O)c2ccccc2)CC1	1.3
COc1cc(OC)cc(C(=O)Nc2cc(C34CC5CC(CC(C5)C3)C4)ccc2C)c1	-3.8
COc1ccc(OC)c(C(=O)c2ccccc2)c1	1.7
Cc1ccc(OCC(=O)O/N=C(\N)c2ccncc2)c(Br)c1	-0.1

SMILES	displacement [%]
CC(=O)n1cnc(-c2ccc(N)c([N+](=O)[O-])c2)c1	4
CCOC(=O)c1cccc(N/C(N)=N/c2nc(C(F)(F)F)cc(=O)[nH]2)c1	1.4
O=C(Nc1c[nH]c(=O)[nH]c1=O)c1ccc([N+](=O)[O-])cc1	6.3
COc1ccc(C2Nc3ccc(Cl)cc3C(c3ccccc3)O2)cc1 (centres undefined)	13.5
CC(=O)NC1=NC(=O)/C(=C/c2cc(C)n(-c3cccc(C(=O)O)c3)c2C)S1	-66.7
COc1ccc(C(=O)Nc2ccccc2C(=O)NCCCn2ccnc2)cc1	11.9
O=C(Nc1nc(-c2ccc(Cl)cc2)cs1)c1cccs1	12
O=C(COc1ccc(Cl)cc1Br)N/N=C/c1ccc([N+](=O)[O-])s1	4.7
CCOc1ccc(C(=O)Nc2cc(Cl)ccc2OC)cc1OCC	1.6
CCc1ccc(NC(=S)NC(=O)c2ccco2)cc1	12.6
CCC1=NN(C(=O)c2cccc(C)c2O)C(O)(c2ccc(Br)cc2)C1 (centres undefined)	9.8
CCCCCNC(=O)c1ccc(C(=O)NCCCCC)cc1	15.9
O=C(NCc1ccc2c(c1)OCO2)C(c1ccccc1)c1ccccc1	14.6
O=C(O)c1ccccc1C(=O)c1ccc(Cl)c(N2C(=O)CCC2=O)c1	-1.3
Nc1ccc(S(=O)(=O)Nc2nccc(/C=C\c3ccccc3Cl)n2)cc1	0.4
O=C(Nc1nc(-c2ccco2)cs1)c1ccccc1	-12
C/C(=C1/SC(N2CCOCC2)=NC1=O)c1ccc(Br)cc1	-19.2
Cc1ccc(/C=C(\C#N)c2nc(-c3ccc(C)c(C)c3)cs2)o1	-25.1
CCN(CC)C(=O)CSc1nc(O)c(Cc2ccc(OC)cc2)c(=O)[nH]1	6.9
CC(C)C(=O)Nc1ccc(Br)c(NC(=O)c2ccccc2)c1	8.7
CCCOC(=O)c1cccc(NC(=O)c2cccc(Cl)c2)c1	-9.3
CC(=O)Oc1ccc2ccccc2c1C(NC(=O)Cc1ccccc1)c1ccccc1Cl (centres undefined)	7.4

SMILES	displacement [%]
CCOC(=O)C(C(=O)OCC)=C(N)C(F)(F)F	2
O=C(c1ccncc1)N1N=C(C(F)(F)F)CC1(O)c1ccc(Cl)cc1 (centres undefined)	10.5
CCCC(=O)Nc1cccc(NC(=O)c2cc(Br)ccc2I)c1	7.3
COc1ccccc1NS(=O)(=O)c1ccc(Br)c(C(=O)Nc2ccccc2)c1	-5.2
COc1ccc(C(=O)N2CCN(CCCc3ccccc3)CC2)cc1OC	-4.5
COC(=O)c1ccccc1NC(=O)c1cnn2c(C(F)(F)F)cc(-c3ccccc3)nc12	11.9
COc1ccccc1OCC(=O)Nc1ccc(N(C)C)cc1	12.2
COc1ccccc1N1C(=O)NC(=O)/C(=C/c2c(OC)ccc3ccccc23)C1=O	1.1
C=C(C)Cn1c(SCC(=O)O)nnc1-c1ccc(OC)c(OC)c1	-7.2
COc1ccc(NC(=O)C2=C(C)NC(=O)NC2c2ccc(OC)cc2OC)cc1 (centres undefined)	-0.2
COc1cc(OC)cc(C(=O)NCCCN2CCOCC2)c1	1.2
O=c1/c(=C/c2cc(Br)ccc2OCc2ccccc2F)sc2nc3ccccc3n12	1.9
Cc1cccc(CSCc2nnc(NC(=O)Nc3ccc(Cl)cc3)s2)c1	-1.4
Cc1cc(I)ccc1NC(=O)COc1cccc(C)c1C	-5
C/C(=N\NC(=O)c1cccc(Br)c1)c1cccnc1	-2.9
COc1cc(NC(=O)COc2ccc(F)cc2)c(Cl)cc1NC(=O)c1ccccc1	2.3
Cc1c(OCC(=O)O)ccc2c1oc(=O)c1ccccc12	12.1
O=C(O)c1ccc(Oc2cccc([N+](=O)[O-])c2)cc1C(=O)O	1.6
O=C(Nc1ccc(Cl)cc1)c1cc([N+](=O)[O-])ccc1Cl	14
COc1ccccc1N1C(=O)CC(Nc2ccc(C)cc2)C1=O (centres undefined)	1.6
COC(=O)c1cccc(NC(=O)c2ccccc2)c1	-4.9
CCOc1ccc(N(CC(=O)Nc2cccc3ccccc23)S(C)(=O)=O)cc1	2.5

SMILES	displacement [%]
COc1ccc(Nc2nc(NCc3ccco3)nc(N/N=C/c3ccc(O)cc3)n2)cc1	-6.9
Cc1ccc(-c2nc3cccnc3o2)cc1NC(=O)COc1ccc2ccccc2c1	1.8
COc1ccc(C(=O)N2CC(c3ccc(Cl)cc3)CC2=O)cc1 (centres undefined)	-4
CCOc1ccc2nc(N3C(=O)C4C5c6ccccc6C(c6ccccc65)C4C3=O)sc2c1 (centres undefined)	-9.6
Cc1ccc2nsnc2c1NC(=O)c1ccc(OCc2ccccc2)cc1	1.8
CCOc1cc(/C=C2\SC(=S)N(NC(=O)c3ccccc3Br)C2=O)ccc1O	-30.3
O=C(O)C1CCCCC1C(=O)Nc1nc(-c2ccc(Cl)cc2Cl)cs1 (centres undefined)	6.3
CCOC(=O)C(=CNC(CO)C(=O)O)C(=O)OCC (centres undefined)	10
CCOC(=O)C1=C(c2ccccc2)N=C2SCC(=O)N2C1c1ccc(OC)c(OC)c1 (centres undefined)	0.4
COc1ccc(C(=O)NCCC2=CCCCC2)cc1OC	-3.4
CCOC(=O)c1cc(C#N)c(SCc2ccccc2)[nH]c1=O	-2.6
O=C(Nc1ccc(Cl)c(Cl)c1)c1cc2n(n1)C(C(F)(F)F)CC(c1ccccc1)N2 (centres undefined)	10.5
COC(=O)c1c(-c2ccccc2Cl)csc1NC(=O)CCC(=O)O	-0.7
CC(=O)Oc1cc(C)cc2oc(=O)c(Cc3ccccc3)c(C)c12	3.3
CCOC(=O)CNC(=O)c1cc(-c2ccc(Cl)c(Cl)c2)nc2ccccc12	1.2
CC(=O)C1=C(C)NC(=O)NC1c1cccc([N+](=O)[O-])c1 (centres undefined)	0.3
COc1cc(C(=O)N2CCN(c3ccccc3)CC2)c([N+](=O)[O-])cc1OC	-7.7
COc1cc(/C=N/NC(=O)COc2ccc(Cl)cc2Br)cc(Br)c1O	-3.2
C=CCn1c(O)c(/C=C2\C=Nc3ccccc32)c(=O)[nH]c1=S	-2.9
Cc1cccc(C)c1NC(=O)C(=O)NCC1CCCO1 (centres undefined)	9.2
COc1cccc(NC(=O)C2C3CCC4C(CCC32)C4(Cl)Cl)c1 (centres undefined)	-5.7
